PubChem BioAssay AID602310 (National Center for Advancing Translational Sciences (NCATS), 2012)
In all, about 410,000 compounds went through this assay and about 310 (0.076%) were called active. This list was built around the results that the source calls inconclusive (neither active nor inactive); the mix of calls is not that of the screen. The call rests on the fitted dose curve; in most records, active means well fitted curve in the direction sought with a large enough effect; inconclusive means small, poorly fitted or top-dose-only effect; inactive means flat fitted curve, though single readings scatter. Where the call is inconclusive, the potency comes from a doubtful curve fit.

biological target: DNA dC->dU-editing enzyme APOBEC-3G (Homo sapiens) (UniProt Q9HC16); experiment: qHTS for Inhibitors of Vif-A3G Interactions: qHTS; settings: HeLa A3G-eYFP + Vif (tagged APOBEC3G with the HIV-1 protein that degrades it), YFP fluorescence, overnight; series mostly up to 46.1 µM; further: nearly all actives have a fitted effect of over 60% in size
Procedure, shortened: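 Read-out is eYFP fluorescence (Ex 488/Em 500-530) from Vif-expressing HeLa A3G-eYFP cells; more signal means A3G escaped Vif-mediated degradation. Cells plated overnight, compound pinned in, incubated overnight at 37 deg C.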
Potency means the concentration at half of the fitted maximal effect; tags describe the fitted curve by direction and shape.

Sequence of UniProt Q9HC16 (Q9HC16 whole entry, looked up): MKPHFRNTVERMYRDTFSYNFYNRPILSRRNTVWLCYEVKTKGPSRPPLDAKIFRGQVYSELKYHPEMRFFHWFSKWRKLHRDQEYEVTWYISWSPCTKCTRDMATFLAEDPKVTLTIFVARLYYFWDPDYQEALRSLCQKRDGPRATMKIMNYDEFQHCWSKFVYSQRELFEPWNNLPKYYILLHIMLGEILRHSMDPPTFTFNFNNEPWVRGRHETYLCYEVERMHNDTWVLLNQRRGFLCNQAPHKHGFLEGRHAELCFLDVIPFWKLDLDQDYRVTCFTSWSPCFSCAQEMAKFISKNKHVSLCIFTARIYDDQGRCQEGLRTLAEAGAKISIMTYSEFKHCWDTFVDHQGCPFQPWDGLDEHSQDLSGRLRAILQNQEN

Row | SMILES | Potency
1 | O=C(O)c1ccc(NS(=O)(=O)c2cccc(C(=O)Nc3ccccc3[N+](=O)[O-])c2)cc1 | inconclusive: 12.6 µM [inhibitor, partial curve, poor fit]
2 | COCCCNC(=O)/C(C#N)=C/c1cccc(NC(=O)c2ccccc2Cl)c1 | inconclusive: 12.6 µM [inhibitor, single point]
3 | Cc1ccc2nc(SCC(=O)Nc3cc(C(F)(F)F)ccc3N3CCOCC3)[nH]c2c1 | inconclusive: 0.355 µM [inhibitor, full curve, poor fit]
4 | Cc1cc(NC(c2cccnc2)c2ccc3cccnc3c2O)no1 (stereo unspecified) | inactive
5 | Cc1cccc(Cn2c(C)c(C)c3cc(C(=O)NCc4ccc(C)o4)ccc32)c1 | inconclusive: 10 µM [inhibitor, partial curve, poor fit]
6 | COc1ccc(-c2cccc(NS(=O)(=O)c3cc(C)c(Cl)cc3C)c2)nn1 | inactive
7 | COc1cccc2c(Nc3ccccc3C)cc(C)nc12 | inactive
8 | Cc1nn2c(-c3cccc(NC(=O)CSc4nc5ccccc5o4)c3)nnc2c2ccccc12 | inactive
9 | CC(=O)C1=C(O)C(=CC=Cc2ccccc2)OC1=O | inactive
10 | CCOc1ccccc1NC(=O)COC(=O)c1c[nH]c2ccccc12 | inconclusive: 2.51 µM [inhibitor, full curve]
11 | Cc1ccc(S(=O)(=O)CC(=O)c2ccc(C)c([N+](=O)[O-])c2)cc1 | inactive
12 | CCN1/C(=C/c2ccc3ccc(C)cc3[n+]2CC)Sc2ccccc21 | inconclusive: 3.16 µM [inhibitor, partial curve, poor fit]
13 | COc1ccccc1NC(=O)CSc1ncc2c(n1)-c1cc(Cl)ccc1N(C)S2(=O)=O | inconclusive: 12.6 µM [inhibitor, partial curve, poor fit]
14 | Cc1cc(C)c2c(=O)[nH]c(=O)n(Cc3ccccc3)c2n1 | inconclusive: 35.5 µM [inhibitor, single point]
15 | CCCCC(=O)Nc1ccc(C(=O)NNC(=O)c2ccc(C)c(Br)c2)cc1 | inactive
16 | COC(=O)CNC(c1ccccc1)c1cc(C)ccc1NC(=O)CNC(=O)OCc1ccccc1 (stereo unspecified) | inconclusive: 25.1 µM [inhibitor, single point]
17 | COc1cc(CN(CCN(C)C)Cc2ccccc2)ccc1OCc1ccccc1 | inactive
18 | COc1cc(-c2cc3nc(NCc4cccs4)ccn3n2)cc(OC)c1OC | inconclusive: 22.4 µM [inhibitor, single point]
19 | O=C(Nc1nnc(COc2ccc(Cl)cc2)s1)c1ccco1 | inactive
20 | N#CC1=C(N)C(C#N)(C#N)[C@H](c2ccoc2)[C@H]2CN(Cc3ccccc3)CC=C12 | inconclusive: 7.08 µM [inhibitor, partial curve, poor fit]
21 | COc1ccc(NC(=O)CCCS(=O)(=O)c2nc(-c3ccc(OC)c(OC)c3)cc(C(F)(F)F)n2)cc1OC | inconclusive: 28.2 µM [inhibitor, single point]
22 | COc1ccc2c(c1)C(=O)N(c1ccc(C)cc1C)C(=O)C2 | inconclusive: 22.4 µM [inhibitor, single point]

Row | SMILES | Potency
23 | Cc1ccc(C(=O)NC(=C(Cl)Cl)S(=O)(=O)c2ccc(Cl)cc2)cc1 | inconclusive: 3.16 µM [inhibitor, full curve, poor fit]
24 | Cn1cc([N+](=O)[O-])c(C(=O)Nc2ccc3c(c2)OCCO3)n1 | inconclusive: 22.4 µM [inhibitor, single point]
25 | COc1cccc(-c2cnc3c(NC(C)=O)cc(-c4cccc(NC(C)=O)c4)cn23)c1 | inconclusive: 28.2 µM [inhibitor, single point]
26 | Cc1ccc(S(=O)(=O)n2cc(-c3ccccc3)c3ccccc32)cc1 | inconclusive: 0.794 µM [inhibitor, full curve, poor fit]
27 | Cc1cc(C(=O)CN2C(=O)C(=O)N(Cc3ccco3)C2=O)c(C)n1CCc1ccc(F)cc1 | inconclusive: 22.4 µM [inhibitor, single point]
28 | Cc1c(C#N)c(NC(=O)CCl)n(Cc2ccc(F)cc2)c1C | inconclusive: 20 µM [inhibitor, single point]
29 | O=S(=O)(Nc1nc2n(n1)C(c1ccccc1)C=C(c1ccc(Cl)cc1)N2)c1ccccc1 (stereo unspecified) | inconclusive: 10 µM [inhibitor, partial curve]
30 | C=CCN1C(=O)/C(=C\C=C2\N(C)c3ccccc3C2(C)C)SC1=S | inconclusive: 2.51 µM [inhibitor, full curve, poor fit]
31 | COc1cc(-c2cc3nc(NCCc4ccncc4)ccn3n2)cc(OC)c1OC | inconclusive: 35.5 µM [inhibitor, single point]
32 | NC(=O)CC(NC(=O)Cc1ccc(Br)cc1)c1ccc(NCc2ccc(F)cc2)c([N+](=O)[O-])c1 (stereo unspecified) | inconclusive: 22.4 µM [inhibitor, single point]
33 | CCc1ccc(NC(=O)CC2C(=O)N(c3ccc(Cl)cc3)C(=O)N2C2CCCC2)cc1 (stereo unspecified) | inconclusive: 35.5 µM [inhibitor, single point]
34 | OC[C@@H]1CN(CCNc2ccccc2)C[C@H](n2cnc3c(NCc4ccncc4)ncnc32)O1 | inactive
35 | Cc1cc(C(=O)Nc2sc3c(c2C#N)CCCC3)no1 | inconclusive: 7.08 µM [inhibitor, partial curve, poor fit]
36 | NC(=O)CC(NC(=O)Cc1ccc(Br)cc1)c1ccc(NCc2ccc(F)c(F)c2)c([N+](=O)[O-])c1 (stereo unspecified) | inconclusive: 31.6 µM [inhibitor, single point]
37 | COc1cc(/C=C2\C(=O)ON=C2c2ccc(Cl)cc2)ccc1O | inconclusive: 35.5 µM [inhibitor, single point]
38 | COc1ccc(C(C)(O)c2nc(-c3ccccc3C)cs2)cc1 (stereo unspecified) | inconclusive: 2.24 µM [inhibitor, full curve, poor fit]
39 | O=C(Cc1ccc(Cl)cc1)Nc1ccc(-c2nnc(-c3ccco3)o2)cc1 | inconclusive: 35.5 µM [inhibitor, single point]
40 | O=C(N/N=C/c1ccccc1)c1ccc(CN2C(=O)c3cccc4cccc2c34)cc1 | inconclusive: 11.2 µM [inhibitor, single point]
41 | CCC(=O)n1nc(-c2ccc(Cl)cc2)nc1NCc1ccccc1 | inconclusive: 28.2 µM [inhibitor, single point]
42 | COc1ccc(C(=O)NC(=S)NCc2ccccc2)cc1 | inactive
43 | CCCCOc1ccc(CSC2=NCCN2)cc1[N+](=O)[O-] | inconclusive: 35.5 µM [inhibitor, single point]
44 | O=S(=O)(c1cccc(Cl)c1)N1CCN(c2nc(-c3cccs3)nc3ccccc23)CC1 | inactive

Row | SMILES | Potency
45 | CC(=O)C1=C(c2ccccc2)NC(=S)NC1c1ccc(O)c(O)c1 (stereo unspecified) | inactive
46 | CC(/C=N/NC(=O)c1cc(C(C)(C)C)[nH]n1)=C\c1ccccc1 | inconclusive: 22.4 µM [inhibitor, single point]
47 | CCCN(CCC)c1ncnc2c1cnn2-c1ccc(OC)cc1 | inactive
48 | Cc1ccc(N(C(=O)c2ccco2)C(C(=O)NC2CCCC2)c2ccco2)c(C)c1 (stereo unspecified) | inactive
49 | Cc1cccc(/C=C/C(=O)c2ccc([N+](=O)[O-])o2)c1 | inconclusive: 6.31 µM [inhibitor, full curve]
50 | CCc1cc2c(=O)n(Cc3ccco3)c(SCC(=O)N3CCCc4ccccc43)nc2s1 | inactive
51 | O=C(Nc1cccc(Br)c1)C1CC(=O)N(C2CCCC2)C1 (stereo unspecified) | inconclusive: 22.4 µM [inhibitor, single point]
52 | Cc1cccc(Nc2cc(C)nc3ccccc23)c1 | inactive
53 | CCOC(=O)c1[nH]c(C)c(C(=O)c2ccc(C)cc2)c1C | inconclusive: 1 µM [inhibitor, full curve, poor fit]
54 | CCOC(=O)CSc1nc2sc3c(c2c(=O)n1-c1ccccc1)CCN(C(C)C)C3 | inactive
55 | COc1ccc2cc(CN(CC3CCCO3)C(=O)Nc3ccccc3OC)c(=O)[nH]c2c1 (stereo unspecified) | inconclusive: 3.55 µM [inhibitor, full curve]
56 | O=C(O)c1cccc(NC(=S)N/N=C/c2ccccc2OCc2cccc(Br)c2)c1 | inactive
57 | COc1ccc(C(=O)N/N=C\C(C)=C\c2ccccc2)cc1OC | inconclusive: 12.6 µM [inhibitor, single point]
58 | COC(=O)c1ccccc1NC(=O)C1CC(=O)N(c2ccc(C)c(C)c2)C1 (stereo unspecified) | inconclusive: 12.6 µM [inhibitor, single point]
59 | COC(=O)/C=C1\SC(=Nc2ccc(Cl)c(Cl)c2)NC1=O | inactive
60 | CCC(C(=O)NCc1ccc2c(c1)CCN2C(=O)c1ccc(F)cc1)c1ccccc1 (stereo unspecified) | inactive
61 | COCCN1Cc2cccc(C(=O)Nc3cccc(-c4nc5ccccc5[nH]4)c3)c2C1=O | inconclusive: 17.8 µM [inhibitor, single point]
62 | CCN(CC)CCC(=O)N1C/C(=C/c2ccccc2)C(=O)/C(=C\c2ccccc2)C1 | inconclusive: 3.16 µM [inhibitor, full curve, poor fit]
63 | COc1ccc(Cc2c(-c3ccc(Cl)cc3)nc3c(C)cc(Br)cn23)c(C)c1 | inconclusive: 11.2 µM [inhibitor, partial curve, poor fit]
64 | Cc1cc(O)c(-c2n[nH]c3c2C(c2cccc(O)c2)N(Cc2cccnc2)C3=O)cc1Cl (stereo unspecified) | inconclusive: 35.5 µM [inhibitor, single point]
65 | Cc1ccc(OCc2ccc(C(=O)O)o2)cc1C | inactive
66 | C[C@H](CO)N1C[C@H](C)[C@@H](CN(C)C(=O)Nc2ccc(C(F)(F)F)cc2)Oc2c(NC(=O)Cc3ccccc3)cccc2C1=O | inactive
